Here are results for 18 molecules from the supplement of paper PMC10369915.

Some of the results follow. No stated cut-off is given here; in the data, active = 3.2 or more and inactive = the rest. Most of these values are background signal.

The chains are these.
B1: DES_Y5_S2I (peptide)
chain: GMIQAYSSSQR
B2: DCX_Y105_R102S (peptide)
chain: GVSYIYTIDGS
B3: DDX27_Y763_G766S (peptide)
chain: KALKQYRASPS
B4: DDX18_Y643 (peptide)
chain: GGGFGYQKTKK
B5: DDR2_Y481_R478C (peptide)
chain: PLCPDYQEPSR
B6: DDR2_Y740_Y740C (peptide)
chain: LYSGDCYRIQG
B7: DDX18_Y643_K647R (peptide)
chain: GGGFGYQKTRK
B8: DES_Y331 (peptide)
chain: HQIQSYTCEID
B9: DEGS1_Y284_A280V (peptide)
chain: IVAEYYDNLPH
B10: DDR2_Y736_Y740C (peptide)
chain: MSRNLYSGDCY
B11: DGKE_Y269_R273P (peptide)
chain: CTLLPYYSAPV
B12: DES_Y388_Q389P (peptide)
chain: RHLREYPDLLN
B13: DGKE_Y269_YF (peptide)
chain: CTLLPYFSARV
B14: DFNB31_Y234_V229I (peptide)
chain: ITNHIYTWVDP
B15: DCP1B_Y191_N195D (peptide)
chain: SSSAIYDNPDL
B16: DDX49_Y223 (peptide)
chain: QLDQRYLLVPE
B17: DES_Y388_N393I (peptide)
chain: RHLREYQDLLI
B18: DDR2_Y736 (peptide)
chain: MSRNLYSGDYY
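Further: displayed peptides selected on beads carrying the immobilized SH2 domain, with library peptides lacking any tyrosine serving as negative controls.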

The first assay concerns the target SHP2 C-SH2 domain E139D. The assay is described as follows: enrichment score (SH2-bound / input frequency) (ratio); bacterial display of known human phosphotyrosine sites (pTyr-Var adds point mutants) read by sequencing; higher = stronger binding; tyrosines were phosphorylated by kinases first. The conditions noted are these: peptide library: pTyr-Var.
As to B1, the enrichment score is inactive: 0.884.

Turning to B2, the enrichment score was inactive: 1.92.

As for B3, the enrichment score was inactive: 0.371.

Turning to B4, the enrichment score is inactive: 0.893.

As for B5, the enrichment score was inactive: 0.944.

With B6, the enrichment score was inactive: 0.889.

With B7, the enrichment score was inactive: 0.771.

B8: the enrichment score is inactive: 0.771.

Consider B9, for which the enrichment score is inactive: 1.16.

As to B10, the enrichment score was inactive: 0.835.

On to B11, for which the enrichment score was inactive: 1.2.

In the case of B12, the enrichment score is inactive: 1.42.

As for B13, the enrichment score is inactive: 0.794.

With B14, the enrichment score was inactive: 1.88.

Consider B15, for which the enrichment score was inactive: 0.686.

With B16, the enrichment score is inactive: 0.777.

B17: the enrichment score is inactive: 1.79.

For the molecule B18, the enrichment score was inactive: 0.72.

A further assay addresses SHP2 C-SH2 domain wild-type. The description is as above. The conditions noted are these: peptide library: pTyr-Var.
As to B1, the enrichment score was inactive: 0.646.

Regarding B2, the enrichment score is active: 4.1.

Consider B3, for which the enrichment score is inactive: 0.383.

Consider B4, for which the enrichment score was inactive: 1.07.

Turning to B5, the enrichment score is inactive: 0.715.

Consider B6, for which the enrichment score is inactive: 1.02.

Turning to B7, the enrichment score is inactive: 0.634.

Regarding B8, the enrichment score is inactive: 0.663.

As to B9, the enrichment score was inactive: 1.15.

With B10, the enrichment score was inactive: 0.889.

Consider B11, for which the enrichment score was inactive: 1.64.

B12: the enrichment score was inactive: 1.02.

For B13, the enrichment score is inactive: 0.988.

With B14, the enrichment score is inactive: 1.87.

For B15, the enrichment score is inactive: 0.528.

Regarding B16, the enrichment score was inactive: 0.602.

Take B17: the enrichment score was inactive: 1.96.

As to B18, the enrichment score was inactive: 0.624.

For the next assay, the target named is SHP2 N-SH2 domain L43F. Described as above. The conditions noted are these: peptide library: pTyr-Var.
Consider B1, for which the enrichment score was inactive: 0.757.

With B2, the enrichment score is inactive: 1.07.

Regarding B3, the enrichment score was inactive: 0.371.

For the molecule B4, the enrichment score was inactive: 0.981.

B5: the enrichment score is inactive: 0.853.

B6: the enrichment score is inactive: 0.837.

Take B7: the enrichment score was inactive: 0.54.

For B8, the enrichment score is inactive: 0.719.

Take B9: the enrichment score is inactive: 1.22.

With B10, the enrichment score was inactive: 0.756.

B11: the enrichment score was inactive: 1.35.

For B12, the enrichment score is inactive: 1.21.

As for B13, the enrichment score is inactive: 0.877.

Take B14: the enrichment score is inactive: 1.57.

For B15, the enrichment score is inactive: 0.684.

For the molecule B16, the enrichment score was inactive: 0.665.

On to B17, for which the enrichment score was inactive: 2.

With B18, the enrichment score is inactive: 0.68.

The next assay addresses SHP2 N-SH2 domain T42A. Described as above. Particulars: peptide library: pTyr-Var.
Regarding B1, the enrichment score is inactive: 0.571.

On to B2, for which the enrichment score is active: 3.36.

For the molecule B3, the enrichment score is inactive: 0.359.

On to B4, for which the enrichment score was inactive: 0.675.

B5: the enrichment score is inactive: 0.924.

Consider B6, for which the enrichment score was inactive: 0.68.

Take B7: the enrichment score is inactive: 0.425.

Regarding B8, the enrichment score was inactive: 0.713.

On to B9, for which the enrichment score is inactive: 1.17.

Turning to B10, the enrichment score is inactive: 0.534.

For B11, the enrichment score is inactive: 1.03.

With B12, the enrichment score was inactive: 1.07.

Regarding B13, the enrichment score was inactive: 0.845.

For B14, the enrichment score was inactive: 1.71.

In the case of B15, the enrichment score is inactive: 0.687.

As to B16, the enrichment score was inactive: 0.649.

In the case of B17, the enrichment score was inactive: 1.75.

With B18, the enrichment score is inactive: 0.553.

The next assay addresses SHP2 N-SH2 domain T52S. The assay is described as above. Particulars: peptide library: pTyr-Var.
Regarding B1, the enrichment score was inactive: 0.576.

With B2, the enrichment score was inactive: 1.2.

On to B3, for which the enrichment score is inactive: 0.33.

For the molecule B4, the enrichment score is inactive: 0.709.

On to B5, for which the enrichment score was inactive: 0.708.

On to B6, for which the enrichment score was inactive: 0.647.

As to B7, the enrichment score is inactive: 0.615.

Consider B8, for which the enrichment score is inactive: 0.645.

For B9, the enrichment score is inactive: 0.915.

For the molecule B10, the enrichment score is inactive: 0.6.

With B11, the enrichment score is inactive: 1.09.

Take B12: the enrichment score is inactive: 1.05.

With B13, the enrichment score was inactive: 0.89.

B14: the enrichment score was inactive: 1.94.

In the case of B15, the enrichment score was inactive: 0.756.

As to B16, the enrichment score is inactive: 0.693.

Consider B17, for which the enrichment score was inactive: 1.78.

As for B18, the enrichment score was inactive: 0.64.

The target in the next assay is SHP2 N-SH2 domain wild-type. Described as above. The conditions noted are these: peptide library: pTyr-Var.
In the case of B1, the enrichment score was inactive: 0.946.

With B2, the enrichment score was inactive: 0.941.

For the molecule B3, the enrichment score was inactive: 0.51.

For B4, the enrichment score is inactive: 1.13.

Consider B5, for which the enrichment score was inactive: 1.28.

In the case of B6, the enrichment score is inactive: 1.01.

Consider B7, for which the enrichment score was inactive: 0.497.

Turning to B8, the enrichment score is inactive: 0.599.

Consider B9, for which the enrichment score is inactive: 0.987.

As for B10, the enrichment score was inactive: 1.08.

Turning to B11, the enrichment score is inactive: 1.71.

On to B12, for which the enrichment score was inactive: 1.44.

In the case of B13, the enrichment score is inactive: 1.11.

In the case of B14, the enrichment score was inactive: 1.95.

For the molecule B15, the enrichment score was inactive: 0.751.

For B16, the enrichment score is inactive: 0.766.

In the case of B17, the enrichment score is inactive: 2.12.

For B18, the enrichment score is inactive: 0.708.
